# From the supplement of paper PMC10037445
# In all, about 2,900 compounds were measured (“NF-kB SEAP reporter activity, fold change vs agonist alone”: median about 0.99, highest 2% from about 2.6 on). Some of the results follow.
# Assays:
# RAW-Dual [1] = experiment: NF-kB SEAP reporter activity, fold change vs agonist alone; higher = enhanced NF-kB activity; details: library stock concentration (final ~1000-fold dilution): 10 mM
# Outline: (§1)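 RAW-Dual macrophages (50,000 cells/well in DMEM, 384-well plates) received 50 nL of library stock by pin tool, then a PRR agonist 1 h later, and were kept at 37 °C, 5% CO2. After 20 hours, supernatant was read for IRF by QuantiLuc luminescence and for NF-κB by QuantiBlue absorbance at 620 nm. Reporter activity is fold change over agonist-alone wells. Cytotoxic wells had IncuCyte confluency below 70% of agonist controls in both mask sets.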
# RAW-Dual [2] = experiment: NF-kB SEAP reporter activity, fold change vs agonist alone; cytotoxicity flag (confluency mask): not cytotoxic; higher = enhanced NF-kB activity
# Outline: as §1
# RAW-Dual [3] = experiment: NF-kB SEAP reporter activity, fold change vs agonist alone; cytotoxicity flag (confluency mask): cytotoxic (confluency <70% of control); higher = enhanced NF-kB activity
# Outline: as §1
# [4] = cytotoxicity flag (confluency mask): not cytotoxic, agonist: Imiquimod (TLR7) […]
# [5] = cytotoxicity flag (confluency mask): not cytotoxic, agonist: MPLA (TLR4) […]
# [6] = agonist: ODN 1826 (TLR9) 0.5 ug/mL
# [7] = agonist: Pam2CSK4 (TLR2/6) 0.1 ug/mL
# [8] = agonist: Pam3CSK4 (TLR2/1) 0.1 ug/mL
# [9] = cytotoxicity flag (confluency mask): cytotoxic (confluency <70% of control), agonist: MPLA (TLR4) […]
smiles,measurement,setting,value
Nc1c(Br)cc(Br)cc1CNC1CCC(O)CC1 (stereo not given),NF-kB SEAP reporter activity,RAW-Dual [1]; [4],0.984
same,NF-kB SEAP reporter activity,RAW-Dual [1]; [5],0.994
Nc1c(Br)cc(Br)cc1CNC1CCC(O)CC1 (stereo not given) (library stock concentration (final ~1000-fold dilution): 10 mM),NF-kB SEAP reporter activity,RAW-Dual [2]; agonist: LPS (TLR4) 0.1 ug/mL,1.24
same,NF-kB SEAP reporter activity,RAW-Dual [2]; [6],0.806
same,NF-kB SEAP reporter activity,RAW-Dual [2]; [7],0.964
same,NF-kB SEAP reporter activity,RAW-Dual [2]; [8],0.865
CS(=O)(=O)Nc1ccc([N+](=O)[O-])cc1OC1CCCCC1 (library stock concentration (final ~1000-fold dilution): 10 mM),NF-kB SEAP reporter activity,RAW-Dual [2]; agonist: LPS (TLR4) 0.1 ug/mL,1
same,NF-kB SEAP reporter activity,RAW-Dual [2]; [6],1.08
same,NF-kB SEAP reporter activity,RAW-Dual [2]; [7],0.959
same,NF-kB SEAP reporter activity,RAW-Dual [2]; [8],0.803
CS(=O)(=O)Nc1ccc([N+](=O)[O-])cc1OC1CCCCC1,NF-kB SEAP reporter activity,RAW-Dual [1]; [4],0.998
same,NF-kB SEAP reporter activity,RAW-Dual [1]; [5],1.12
N#Cc1ccc(Oc2ccc3c(c2)COB3O)cc1,NF-kB SEAP reporter activity,RAW-Dual [1]; [5],1.4
N#Cc1ccc(Oc2ccc3c(c2)COB3O)cc1 (library stock concentration (final ~1000-fold dilution): 10 mM),NF-kB SEAP reporter activity,RAW-Dual [2]; agonist: LPS (TLR4) 0.1 ug/mL,1.68
same,NF-kB SEAP reporter activity,RAW-Dual [2]; [6],1.44
same,NF-kB SEAP reporter activity,RAW-Dual [2]; [7],1.31
same,NF-kB SEAP reporter activity,RAW-Dual [2]; [8],1.05
CC(N)C12CC3CC(CC(C3)C1)C2 (stereo not given),NF-kB SEAP reporter activity,RAW-Dual [1]; [4],0.956
same,NF-kB SEAP reporter activity,RAW-Dual [1]; [5],1.32
CC(N)C12CC3CC(CC(C3)C1)C2 (stereo not given) (library stock concentration (final ~1000-fold dilution): 10 mM),NF-kB SEAP reporter activity,RAW-Dual [2]; agonist: LPS (TLR4) 0.1 ug/mL,1.16
same,NF-kB SEAP reporter activity,RAW-Dual [2]; [6],0.839
same,NF-kB SEAP reporter activity,RAW-Dual [2]; [7],1.01
same,NF-kB SEAP reporter activity,RAW-Dual [2]; [8],1.05
CCCCCCOC(=O)N=C(N)c1ccc(NCc2nc3cc(C(=O)N(CCC(=O)OCC)c4ccccn4)ccc3n2C)cc1,NF-kB SEAP reporter activity,RAW-Dual [1]; [4],1.55
same,NF-kB SEAP reporter activity,RAW-Dual [1]; [5],1.47
CCCCCCOC(=O)N=C(N)c1ccc(NCc2nc3cc(C(=O)N(CCC(=O)OCC)c4ccccn4)ccc3n2C)cc1 (library stock concentration (final ~1000-fold dilution): 10 mM),NF-kB SEAP reporter activity,RAW-Dual [2]; agonist: LPS (TLR4) 0.1 ug/mL,1.86
same,NF-kB SEAP reporter activity,RAW-Dual [2]; [6],1.02
same,NF-kB SEAP reporter activity,RAW-Dual [2]; [7],0.968
same,NF-kB SEAP reporter activity,RAW-Dual [2]; [8],1.37
Cl.NC(CO)C(=O)NNCc1ccc(O)c(O)c1O (stereo not given),NF-kB SEAP reporter activity,RAW-Dual [1]; [4],0.889
same,NF-kB SEAP reporter activity,RAW-Dual [1]; [5],0.995
Cl.NC(CO)C(=O)NNCc1ccc(O)c(O)c1O (stereo not given) (library stock concentration (final ~1000-fold dilution): 10 mM),NF-kB SEAP reporter activity,RAW-Dual [2]; agonist: LPS (TLR4) 0.1 ug/mL,1.07
same,NF-kB SEAP reporter activity,RAW-Dual [2]; [6],1.04
same,NF-kB SEAP reporter activity,RAW-Dual [2]; [7],0.944
same,NF-kB SEAP reporter activity,RAW-Dual [2]; [8],1.08
O=C(NCC(=O)N1CCCC1)Nc1ccc2cnccc2c1 (library stock concentration (final ~1000-fold dilution): 10 mM),NF-kB SEAP reporter activity,RAW-Dual [2]; agonist: LPS (TLR4) 0.1 ug/mL,0.941
same,NF-kB SEAP reporter activity,RAW-Dual [2]; [6],0.914
same,NF-kB SEAP reporter activity,RAW-Dual [2]; [7],1.13
same,NF-kB SEAP reporter activity,RAW-Dual [2]; [8],0.761
O=C(NCC(=O)N1CCCC1)Nc1ccc2cnccc2c1,NF-kB SEAP reporter activity,RAW-Dual [1]; [4],0.932
same,NF-kB SEAP reporter activity,RAW-Dual [1]; [5],0.947
CC1CCC2C(C)(C)C3CC12CCC3(C)O (stereo not given) (library stock concentration (final ~1000-fold dilution): 10 mM),NF-kB SEAP reporter activity,RAW-Dual [3]; agonist: LPS (TLR4) 0.1 ug/mL,1.11
same,NF-kB SEAP reporter activity,RAW-Dual [3]; [6],0.855
same,NF-kB SEAP reporter activity,RAW-Dual [3]; [7],1.67
same,NF-kB SEAP reporter activity,RAW-Dual [3]; [8],1.1
CC1CCC2C(C)(C)C3CC12CCC3(C)O (stereo not given),NF-kB SEAP reporter activity,RAW-Dual [1]; [9],1.15
C=CC(=O)Nc1cc(Nc2nccc(-c3cn(C)c4ccccc34)n2)c(OC)cc1N(C)CCN(C)C.CS(=O)(=O)O (library stock concentration (final ~1000-fold dilution): 10 mM),NF-kB SEAP reporter activity,RAW-Dual [3]; agonist: LPS (TLR4) 0.1 ug/mL,2.39
same,NF-kB SEAP reporter activity,RAW-Dual [3]; [6],0.214
same,NF-kB SEAP reporter activity,RAW-Dual [3]; [7],1.28
same,NF-kB SEAP reporter activity,RAW-Dual [3]; [8],0.898
C=CC(=O)Nc1cc(Nc2nccc(-c3cn(C)c4ccccc34)n2)c(OC)cc1N(C)CCN(C)C.CS(=O)(=O)O,NF-kB SEAP reporter activity,RAW-Dual [1]; [9],1.91
O=c1cccccc1O (library stock concentration (final ~1000-fold dilution): 10 mM),NF-kB SEAP reporter activity,RAW-Dual [2]; agonist: LPS (TLR4) 0.1 ug/mL,0.876
same,NF-kB SEAP reporter activity,RAW-Dual [2]; [6],1.05
same,NF-kB SEAP reporter activity,RAW-Dual [2]; [7],1.02
same,NF-kB SEAP reporter activity,RAW-Dual [2]; [8],0.828
O=c1cccccc1O,NF-kB SEAP reporter activity,RAW-Dual [1]; [4],0.945
same,NF-kB SEAP reporter activity,RAW-Dual [1]; [5],1.26
Cn1c2ccccc2c2c3c(c4c5ccccc5n(CCC#N)c4c21)CNC3=O,NF-kB SEAP reporter activity,RAW-Dual [1]; [4],1.21
same,NF-kB SEAP reporter activity,RAW-Dual [1]; [5],1.43
Cn1c2ccccc2c2c3c(c4c5ccccc5n(CCC#N)c4c21)CNC3=O (library stock concentration (final ~1000-fold dilution): 10 mM),NF-kB SEAP reporter activity,RAW-Dual [2]; agonist: LPS (TLR4) 0.1 ug/mL,0.901
same,NF-kB SEAP reporter activity,RAW-Dual [2]; [6],0.414
same,NF-kB SEAP reporter activity,RAW-Dual [2]; [7],0.26
same,NF-kB SEAP reporter activity,RAW-Dual [2]; [8],0.346
O=C(O)c1ccc2c3c1cccc3c(=O)n1c3ccccc3nc21,NF-kB SEAP reporter activity,RAW-Dual [1]; [4],1.04
same,NF-kB SEAP reporter activity,RAW-Dual [1]; [5],1.33
O=C(O)c1ccc2c3c1cccc3c(=O)n1c3ccccc3nc21 (library stock concentration (final ~1000-fold dilution): 10 mM),NF-kB SEAP reporter activity,RAW-Dual [2]; agonist: LPS (TLR4) 0.1 ug/mL,1.96
same,NF-kB SEAP reporter activity,RAW-Dual [2]; [6],1.2
same,NF-kB SEAP reporter activity,RAW-Dual [2]; [7],1.46
same,NF-kB SEAP reporter activity,RAW-Dual [2]; [8],2.15
COc1ccc(CNC(=O)Nc2ncc([N+](=O)[O-])s2)cc1 (library stock concentration (final ~1000-fold dilution): 10 mM),NF-kB SEAP reporter activity,RAW-Dual [2]; agonist: LPS (TLR4) 0.1 ug/mL,2.74
same,NF-kB SEAP reporter activity,RAW-Dual [2]; [6],1.64
same,NF-kB SEAP reporter activity,RAW-Dual [2]; [7],0.864
same,NF-kB SEAP reporter activity,RAW-Dual [2]; [8],1.32
COc1ccc(CNC(=O)Nc2ncc([N+](=O)[O-])s2)cc1,NF-kB SEAP reporter activity,RAW-Dual [1]; [4],1.2
same,NF-kB SEAP reporter activity,RAW-Dual [1]; [5],1.68
